From the supplement of paper PMC3334620
Over roughly 33,000 sequences, “E-score (-0.5 to 0.5)” has its median near -0.054; the highest 2% begin near 0.35. The list shows a part of the results.

molecular target: T1, Stb5 (UniProt P38699); experiment: PBM E-score (8-mer binding enrichment) (E-score (-0.5 to 0.5)); higher = stronger / more preferred TF binding; most listed sequences are background and not binding sites; conditions: protein concentration: 200 nM; construct: GST-full length
T1 sequence: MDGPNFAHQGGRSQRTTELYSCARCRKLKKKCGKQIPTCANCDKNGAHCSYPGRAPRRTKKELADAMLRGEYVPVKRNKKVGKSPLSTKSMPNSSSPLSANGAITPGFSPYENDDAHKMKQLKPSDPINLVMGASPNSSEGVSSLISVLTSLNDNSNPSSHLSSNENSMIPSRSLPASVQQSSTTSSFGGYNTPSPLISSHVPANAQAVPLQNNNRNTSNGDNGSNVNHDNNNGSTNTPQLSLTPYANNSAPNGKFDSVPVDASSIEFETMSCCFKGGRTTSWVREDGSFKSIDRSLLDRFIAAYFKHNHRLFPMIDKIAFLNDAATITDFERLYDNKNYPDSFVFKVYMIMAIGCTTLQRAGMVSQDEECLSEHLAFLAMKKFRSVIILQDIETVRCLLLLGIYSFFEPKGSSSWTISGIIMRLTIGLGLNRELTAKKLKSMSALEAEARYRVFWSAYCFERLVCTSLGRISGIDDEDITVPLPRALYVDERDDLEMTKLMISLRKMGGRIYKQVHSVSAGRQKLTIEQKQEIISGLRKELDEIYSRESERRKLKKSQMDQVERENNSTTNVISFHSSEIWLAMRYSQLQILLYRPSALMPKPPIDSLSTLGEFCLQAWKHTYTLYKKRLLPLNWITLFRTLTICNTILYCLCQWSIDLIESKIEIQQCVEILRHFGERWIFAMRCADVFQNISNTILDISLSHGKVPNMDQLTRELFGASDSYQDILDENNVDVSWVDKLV
How it was run: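 Universal all-10-mer Agilent arrays, fresh or stripped once, were converted to double-stranded form by primer extension. GST-tagged yeast transcription factors from PURExpress in vitro transcription/translation, full-length or DNA-binding domain only, were applied at about 100-200 nM and detected with fluorescent anti-GST. After masliner normalisation, the Universal PBM Analysis Suite scored each ungapped eight-base word together with its reverse complement by E-score.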

Row | Sequence | PBM E-score
1 | CATTGTAA | -0.144
2 | AACCGCAG | 0.00062
3 | ACGACTCC | -0.136
4 | CATCATGA | -0.109
5 | GGCAAGGA | 0.0232
6 | CAGCACTG | -0.172
7 | AAGAGAGC | -0.253
8 | CCGGTAAA | 0.294
9 | ATAGATAA | 0.034
10 | ACTCGACC | -0.144
11 | CACTGTAG | -0.25
12 | GCCACAAC | 0.00768
13 | CCACAGGC | -0.176
14 | AGAGCGCC | 0.0749
15 | AGTACCGA | 0.439
16 | ACGAGCCA | -0.137
17 | GATTGACC | 0.121
18 | GACTGATC | -0.0839
19 | AGCCATCG | -0.12
20 | AAGCCCGC | 0.443
21 | AGTCTAAT | -0.143
22 | GATTGACA | -0.251
23 | AGGGTCTG | -0.317
24 | AGACATTC | -0.215
25 | CCAAAGAA | -0.15

Row | Sequence | PBM E-score
26 | CAGACCAG | -0.23
27 | CCTGTGCA | -0.144
28 | CCTATCGC | 0.174
29 | ATACCTCG | -0.173
30 | AAGCGGGC | 0.234
31 | ATGGCGCC | 0.342
32 | AGACGGCA | 0.0979
33 | TATGTCAA | -0.0285
34 | CCGATCCG | 0.342
35 | AATCGCGA | -0.0351
36 | CCATAAGC | 0.144
37 | AAGTCGCA | -0.155
38 | AAGATAGG | -0.311
39 | AAGGCCCG | 0.359
40 | ATTGGGGC | -0.0618
41 | AGCATATG | -0.201
42 | ACAAATCG | 0.124
43 | GTGAGCAA | -0.0477
44 | GCGATGCC | -0.0106
45 | CCCCTCAC | -0.231
46 | CCTAGGAC | -0.177
47 | GAGTCAGC | -0.0831
48 | AGACATGA | -0.0806
49 | GGAACTTA | 0.258
50 | GCTTCTGA | 0.0129

Row | Sequence | PBM E-score
51 | ATTCACAC | -0.136
52 | GCTACGCA | -0.123
53 | AAGAGCGT | 0.0561
54 | CTCCGTGC | 0.306
55 | ACAGGGAC | -0.131
56 | AGATAGAA | -0.122
57 | ATCAACAG | 0.00858
58 | TAAACCCA | 0.0551
59 | CTTATCGA | -0.132
60 | GGTATATA | 0.214
61 | AGCTCCAT | -0.125
62 | GTCTATAA | 0.0204
63 | CATGAGGC | 0.0421
64 | ACACTATA | -0.0057
65 | GGGATTAA | 0.335
66 | ATAAGGAA | -0.0897
67 | GTCATCTA | -0.179
68 | AGAAATCT | -0.0538
69 | GACATGCC | 0.0122
70 | GTGTTGCA | 0.0279
71 | AGCCCTAC | -0.0947
72 | CTATTAAC | -0.0133
73 | CAATAGCG | 0.156
74 | TGGGAGAA | -0.227
75 | ACATCCGC | 0.339

Row | Sequence | PBM E-score
76 | ATCAGCCG | 0.118
77 | ACTCCCAG | -0.0146
78 | ACAGGATG | 0.00656
79 | CATCCGAC | 0.288
80 | ACAGGAGA | -0.0747
81 | ACTCCCAT | -0.125
82 | GGCCTCCC | -0.0321
83 | CTTCTGGA | -0.0613
84 | AGAATTCA | -0.208
85 | ACTGCAGT | -0.267
86 | AGGGCCAG | -0.371
87 | TGCTTCCA | -0.214
88 | ACACATTG | 0.0442
89 | ACGAACAT | 0.00195
90 | CGCTGTAA | 0.117
91 | ATTTTCGG | 0.269
92 | ATTGACTG | -0.127
93 | TTATACAA | 0.101
94 | CATCTCCA | -0.305
95 | CCGGGACG | 0.14
96 | CCAGCACC | -0.0517
97 | CCTTACCA | -0.171
98 | AATGTTAT | -0.204
99 | ACCACCCC | -0.084
100 | ACTTAAAG | -0.0538

Row | Sequence | PBM E-score
101 | CTGTTAAC | 0.0903
102 | CACCTCTA | 0.0684
103 | CGATCAGC | 0.0183
104 | AAGGTTAG | -0.126
105 | AGATCCCG | 0.265
106 | GGCCAGTA | -0.0306
107 | CGTATTTA | 0.0683
108 | CAGGGCCC | 0.00851
109 | ACTCTCAA | -0.353
110 | AGGCTACA | -0.26
111 | CCTTAATC | 0.109
112 | CGCTGCTC | 0.0409
113 | AAATTCGC | 0.00141
114 | CCGACAGG | 0.319
115 | CAATACAG | -0.0499
116 | ATCGCGTG | -0.0373
117 | CTACAATC | -0.0982
118 | CTTTGGAA | -0.0283
119 | CGGATATA | 0.443
120 | CAACGCCC | 0.0198
121 | CGGCTTGA | -0.0077
122 | TAAACAAA | 0.00384
123 | GACATAAC | 0.244
124 | CACAGAGC | -0.194
125 | AGATTTTG | -0.137

Row | Sequence | PBM E-score
126 | AGTGTAGG | -0.0934
127 | ACTCAAGT | -0.222
128 | TGCGGACA | 0.286
129 | GGGCTACA | -0.0162
130 | GCGCTTAC | 0.215
131 | AACAACAT | -0.175
132 | CACCCGCA | 0.104
133 | ACAAAGGC | -0.0256
134 | AATGTGCG | 0.144
135 | AGAACATC | -0.136
136 | CTAACTTC | -0.186
137 | AGCTTCTG | -0.0547
138 | GGCACTGA | 0.00323
139 | AACGTGCC | 0.0152
140 | GCTTCAAA | -0.0474
141 | GGACCTCA | -0.141
142 | ATGAGGGC | 0.0457
143 | AGCTTAAA | 0.0475
144 | CGGTAAGC | 0.109
145 | AACCTATG | -0.17
146 | GTCGCGAC | 0.141
147 | CCGCAAGC | 0.179
148 | CTTAGCAA | -0.123
149 | CACGTGCA | -0.216
150 | ACTGATTC | 0.0161

Row | Sequence | PBM E-score
151 | GAAATTCA | -0.0853
152 | ACCTTAGA | 0.0651
153 | AGAAGCTG | -0.215
154 | AGGATGCC | -0.136
155 | ACAGATTA | -0.0193
156 | AGTAGAAC | -0.158
157 | ATCATAAC | -0.0841
158 | GGATCTTA | 0.172
159 | CCAGTAGA | -0.298
160 | CTAGAAGC | 0.0799
161 | AGCATTCG | -0.0721
162 | ATCTTAAC | 0.018
163 | CAAAAAGC | 0.151
164 | CGCGCGGC | 0.327
165 | AACAATTC | -0.211
166 | AGGTTTAG | 0.0353
167 | ATTGTCCA | -0.191
168 | CAGGTCTC | -0.271
169 | TATCCCGA | 0.18
170 | CCTGGCAC | 0.0119
171 | AATTAGTG | -0.224
172 | CTATTAAA | -0.156
